{"source": "PubChem BioAssay AID445", "about": "(National Center for Advancing Translational Sciences (NCATS), 2006)", "note": "The whole screen tested about 110,000 compounds, of which about 40 (0.04%) were called active. Inconclusive results, whose numbers are uncertain, are shown with a selection of clear calls. Calls come from the whole dose curve; as a rule, active = well fitted curve in the direction sought with a large enough effect in the signal ratio (not every such curve was filed as active); inconclusive = small, poorly fitted or top-dose-only effect, or a change in a side signal; inactive = flat fitted curve, though single readings scatter; the % refers to the signal ratio. Where the call is inconclusive, the potency comes from a doubtful curve fit. Potency is the fitted concentration of half-maximal effect.", "data": [{"assay": "IkB Signaling;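 for IkBa stabilization activation: 0% = basal untreated cells and 100% = reference inhibitor full response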", "settings": "ABC-DLBCL IkBa-CBG/CBR dual luciferase ratio (green luciferase fused to IkBa over red control in OCI-Ly3 lymphoma cells), 4 h; IkBa stabilization activation: at 57.1 µM (top of the series), scaled: untreated 0%, proteasome inhibitor 100% unless noted", "summary_of_the_method": "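Curves were fitted separately to fusion (green), unfused (red) and ratio luminescence, then classed by r2, magnitude and activity. Cells: OCI-Ly3, 4 h compound plus doxycycline at 37C; 10 uM MG-132 defined full response.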", "values": [{"smiles": "CCOc1ccc(C(=O)N(Cc2ccc(C(C)C)cc2)Cc2ccco2)cc1", "IkBa stabilization activation": "inconclusive: -0.203% [signal inhibitor]"}, {"smiles": "O=C(CCN1c2ccccc2Sc2ccccc21)OCC(=O)N1CCN(C(=O)c2ccco2)CC1", "IkBa stabilization activation": "inconclusive: 5.42% [signal inhibitor]"}, {"smiles": "Cc1cc2c(cc1NS(=O)(=O)c1ccc(Br)cc1)n(C)c(=O)c(=O)n2C", "IkBa stabilization activation": "inactive: 1.09%"}, {"smiles": "CCNc1nc(NCC)n2c(SCc3nc4ccccc4c(=O)[nH]3)nnc2n1", "IkBa stabilization activation": "inactive: -0.169%"}, {"smiles": "CCOC(=O)C1CCCCN1C(=O)CCc1c(C)nc2cc(-c3ccccc3)nn2c1C", "note": "(centres undefined)", "Potency": "inconclusive: 25.1 µM [signal inhibitor, partial curve]"}, {"smiles": "Cc1ccc(NC(=O)CCCc2nc(-c3ccco3)no2)cc1Cl", "IkBa stabilization activation": "inconclusive: 1.87% [signal inhibitor]"}, {"smiles": "COc1ccccc1NC(=O)N(Cc1ccc2c(c1)OCO2)Cc1nc2ccccc2c(=O)[nH]1", "IkBa stabilization activation": "inactive: 5.1%"}, {"smiles": "COc1ccc(-c2noc(CCC(=O)N(C)c3cc(Cl)ccc3OC)n2)cc1", "Potency": "inconclusive: 39.8 µM [signal inhibitor, single point]"}, {"smiles": "COc1ccc(NS(=O)(=O)c2ccc(N3CCCCS3(=O)=O)cc2)cc1Cl", "IkBa stabilization activation": "inconclusive: -1.37% [signal inhibitor]"}, {"smiles": "CC(C)NC(=O)c1ccccc1-c1nc(-c2ccccc2Cl)no1", "IkBa stabilization activation": "inactive: -2.02%"}, {"smiles": "CCc1nn(C(CC)C(=O)NCc2ccc(OC)c(OC)c2)c(=O)c2cc3oc(C)cc3n12", "note": "(centres undefined)", "IkBa stabilization activation": "inconclusive: 0.894% [signal inhibitor]"}, {"smiles": "Cc1nn(-c2nc(-c3ccccc3)cc(C(F)(F)F)n2)c(C)c1Cl", "IkBa stabilization activation": "inconclusive: 3.66% [signal inhibitor]"}, {"smiles": "Cc1ccc(OCCSc2nc(-c3ccccc3C)nc3cc(=O)[nH]n23)cc1Cl", "IkBa stabilization activation": "inconclusive: -0.201% [signal inhibitor]"}, {"smiles": "COc1ccc([C@@H]2OC[C@]3(COC(C)=O)[C@H](C)C=C(C)[C@@H]2[C@H]3C)cc1", "IkBa stabilization activation": "inactive: -1.46% [at 11.4 µM, scaled: untreated 0%, proteasome inhibitor 100%]"}, {"smiles": "CCOc1ccc2c(c1)c(=O)c(C(=O)c1ccc3c(c1)OCO3)cn2Cc1ccc(F)cc1", "IkBa stabilization activation": "inconclusive: 2.6% [signal inhibitor]"}, {"smiles": "COc1cc(/C=C(\\C#N)c2nc3ccc(C)cc3[nH]2)ccc1OCc1ccc(C)cc1", "Potency": "inconclusive: 31.6 µM [signal inhibitor, single point]"}, {"smiles": "CC(=O)Nc1ccc(NC(=O)c2nc(S(=O)(=O)Cc3ccc(F)cc3)ncc2Cl)cc1", "IkBa stabilization activation": "inactive: 0.449%"}, {"smiles": "O=S(=O)(c1ccccc1Cl)N1CCC(O)(c2ccc3c(c2)OCO3)CC1", "IkBa stabilization activation": "inactive: 6.3%"}, {"smiles": "CCc1ccc(C2C(C(=O)Nc3ccccc3OC)=C(C)Nc3c(C(=O)Nc4ccc(C)cc4)cnn32)cc1", "note": "(centres undefined)", "IkBa stabilization activation": "inconclusive: -1.06% [signal inhibitor]"}, {"smiles": "CCN(C(=O)c1cn(-c2cccc(OC)c2)c(=O)c2ccccc12)c1ccccc1C", "IkBa stabilization activation": "inconclusive: 2.4% [signal inhibitor]"}, {"smiles": "Cc1noc(C(=O)Nc2ccc3c(c2)OCO3)c1Cl", "IkBa stabilization activation": "inactive: 4.9%"}, {"smiles": "Cc1ccc(C)c(NC(=O)CSc2nccn2-c2cccc(C)c2C)c1", "IkBa stabilization activation": "inconclusive: 0.202% [signal inhibitor]"}, {"smiles": "CC(=O)c1cc2c(cc1NC(=O)c1ccc(-n3nc(C)cc3C)cc1)OCO2", "IkBa stabilization activation": "inconclusive: 6.74% [signal inhibitor]"}, {"smiles": "O=C(CSc1nnc(-c2ccco2)o1)N1c2ccccc2CCc2ccccc21", "IkBa stabilization activation": "inconclusive: 1.77% [signal inhibitor]"}, {"smiles": "COc1ccc(OC)c(NC(=O)c2oc(=O)c3ccccc3c2-c2ccccc2)c1", "IkBa stabilization activation": "inconclusive: -0.307% [signal inhibitor]"}, {"smiles": "COc1cc2c(cc1OC)-c1nncn1C(C)(C)C2", "IkBa stabilization activation": "inactive: -2.05%"}, {"smiles": "COc1ccc(CC(=O)N2CCc3cc(OC)c(OC)cc3C2COc2ccc(F)cc2)cc1", "note": "(centres undefined)", "IkBa stabilization activation": "inconclusive: -1.15% [signal inhibitor]"}, {"smiles": "CSc1nnc(-c2ccco2)c(-c2ccco2)n1", "IkBa stabilization activation": "inactive: 12.9%"}, {"smiles": "Cn1nc(-c2ccccc2F)c2cc(C(=O)NCc3ccccc3Cl)sc21", "IkBa stabilization activation": "inconclusive: 1.19% [signal inhibitor]"}, {"smiles": "COc1ccc(N2CCN(S(=O)(=O)c3ccc(F)c(C(=O)Nc4ccccc4Cl)c3)CC2)cc1", "IkBa stabilization activation": "inconclusive: -2.5% [signal inhibitor]"}, {"smiles": "CCOc1ccc(NCc2cccn2-c2nnc(N3CCC(C(=O)NCc4ccccc4Cl)CC3)s2)cc1", "IkBa stabilization activation": "inconclusive: 0.0352% [signal inhibitor]"}, {"smiles": "CC(C)(C)OC(=O)N1CCC(c2c(C(=O)NCc3cccs3)cnn2-c2cccc(F)c2)CC1", "IkBa stabilization activation": "inconclusive: -0.659% [signal inhibitor]"}, {"smiles": "COc1ccc(C(=O)Nc2nncs2)cc1S(=O)(=O)N1CC(c2ccccc2)CC1=O", "note": "(centres undefined)", "IkBa stabilization activation": "inconclusive: 0.0221% [signal inhibitor]"}, {"smiles": "Cc1cc(C(=O)CSc2nc3ccccc3o2)c(C)n1C1CC1", "IkBa stabilization activation": "inactive: 3.26%"}, {"smiles": "COc1ccc(Cl)cc1NC(=O)N1CCN(S(=O)(=O)c2ccc3c(ccn3C)c2)CC1", "IkBa stabilization activation": "inactive: 5.38%"}, {"smiles": "CC(C)COc1cccc(C(=O)Nc2ccc(S(=O)(=O)N3CCOCC3)cc2)c1", "IkBa stabilization activation": "inconclusive: 3.64% [signal inhibitor]"}, {"smiles": "CCN(CC)S(=O)(=O)c1cccc(C(=O)Nc2ccccc2C(=O)Nc2ccc(Cl)cc2)c1", "IkBa stabilization activation": "inconclusive: 0.358% [signal inhibitor]"}, {"smiles": "O=c1ccn([C@H]2O[C@H](CO)[C@@H](O)[C@@H]2O)c(=O)[nH]1", "IkBa stabilization activation": "inactive: -0.536% [at 11.4 µM, scaled: untreated 0%, proteasome inhibitor 100%]"}, {"smiles": "OC(CCCCN1CCCCC1)c1ccccc1", "note": "(centres undefined)", "IkBa stabilization activation": "inactive: 0.886%"}, {"smiles": "CC(=O)c1ccc(NC(=O)c2cc(C)nn2-c2ccccc2)cc1", "IkBa stabilization activation": "inconclusive: 2.28% [signal inhibitor]"}, {"smiles": "COCCN(CCOC)S(=O)(=O)c1ccc(C(=O)Nc2sc3c(c2C(=O)OC)CCN(C)C3)cc1", "IkBa stabilization activation": "inconclusive: 0.551% [signal inhibitor]"}, {"smiles": "Cc1ccc(C(=O)Nc2nnn(C)n2)cc1", "IkBa stabilization activation": "inactive: 0.478%"}, {"smiles": "CCOc1cccc(C(=O)Nc2ccc(-c3nc4ncccc4o3)cc2C)c1", "IkBa stabilization activation": "inconclusive: -2.31% [signal inhibitor]"}, {"smiles": "CCCCN(CCCNC(=O)c1cc(Nc2cccc(SC)c2)nc2ccccc12)Cc1ccccc1", "IkBa stabilization activation": "inconclusive: -2.3% [signal inhibitor]"}, {"smiles": "CN(C)S(=O)(=O)N(CC(=O)NCCSCc1c(F)cccc1Cl)c1ccccc1", "IkBa stabilization activation": "inconclusive: -1.83% [signal inhibitor]"}, {"smiles": "CCCN1CCN(CCCNC(=O)c2cc3c(=O)n(CC)c4ccccc4c3s2)CC1", "IkBa stabilization activation": "inconclusive: 4.18% [signal inhibitor]"}, {"smiles": "Cc1ccc(-n2c(SCc3ccccc3F)nc3[nH]ncc3c2=O)cc1Cl", "IkBa stabilization activation": "inactive: -5.68%"}, {"smiles": "CN(CC(=O)O)Cc1c(O)c(Cl)cc(Cl)c1Cl", "IkBa stabilization activation": "inactive: 2.14% [at 11.4 µM, scaled: untreated 0%, proteasome inhibitor 100%]"}, {"smiles": "CCOC(=O)c1c(C2CCN(C(=O)OCC)CC2)nc2ccccn12", "IkBa stabilization activation": "inactive: 0.902%"}, {"smiles": "Brc1ccc(-c2nc(-c3ccccn3)no2)o1", "Potency": "inconclusive: 12.6 µM [signal inhibitor, partial curve]"}, {"smiles": "O=Nc1ccc2oc(=O)ccc2c1", "Potency": "inconclusive: 5.01 µM [signal inhibitor, partial curve]"}, {"smiles": "CC(=O)Nc1ccc(/C=C/c2noc(-c3ccccc3O)n2)cc1", "Potency": "inconclusive: 31.6 µM [signal inhibitor]"}, {"smiles": "Cc1cc(C)c2ccc(C)[n+]([O-])c2c1O", "IkBa stabilization activation": "inactive: -1.42%"}, {"smiles": "CCc1nnc(NC(=O)c2cc(=O)c3cc(C)ccc3o2)s1", "IkBa stabilization activation": "inactive: 1.89%"}, {"smiles": "O=C(O)[C@H]([C@H]1NCCS1)N1Cc2ccccc2C1", "IkBa stabilization activation": "inactive: 1.88% [at 11.4 µM, scaled: untreated 0%, proteasome inhibitor 100%]"}, {"smiles": "CCC(C)(C)NC(=O)C(c1cccn1C)N(C(=O)Cn1nnc2ccccc21)c1ccc(OC)cc1", "note": "(centres undefined)", "IkBa stabilization activation": "inconclusive: 1.99% [signal inhibitor]"}, {"smiles": "Cc1ccc(C)c(N2CCN(C(=O)Cn3cnc4onc(-c5ccc(F)cc5)c4c3=O)CC2)c1", "IkBa stabilization activation": "inconclusive: 1.74% [signal inhibitor]"}, {"smiles": "CC1CN(Cc2nc3c(c(=O)n(C)c(=O)n3C)n2CC(=O)c2ccccc2)CC(C)O1", "note": "(centres undefined)", "IkBa stabilization activation": "inactive: -0.257%"}, {"smiles": "Cc1ccc(C(=O)Nc2ccc3c(c2)OCO3)cc1S(=O)(=O)N1CCCC1", "IkBa stabilization activation": "inactive: 7.77%"}, {"smiles": "CCCCCCCC/C=C\\CCCCCCCC(=O)N(CCO)CCO", "IkBa stabilization activation": "inactive: 1.84%"}, {"smiles": "Cc1ccc(S(=O)(=O)CC(=O)Nc2nc3c(C)cc(C)cc3s2)cc1", "IkBa stabilization activation": "inconclusive: 1.78% [signal inhibitor]"}, {"smiles": "Cc1ccc(NC(=O)Nc2ccc(F)cc2)nc1", "IkBa stabilization activation": "inconclusive: 6.12% [signal inhibitor]"}, {"smiles": "COc1ccc(-c2noc(CNC(=O)c3ccccc3Br)n2)cc1", "IkBa stabilization activation": "inactive: -1.99%"}, {"smiles": "Cn1cccc1C(=O)N1CCC[C@@]2(CCN(Cc3ccc(C#N)cc3)C2)C1", "IkBa stabilization activation": "inactive: -0.27% [at 11.4 µM, scaled: untreated 0%, proteasome inhibitor 100%]"}, {"smiles": "COc1cccc(NC(=O)c2cccc3c(=O)c4c([nH]c23)CCCC4)c1", "IkBa stabilization activation": "inactive: -2.24%"}, {"smiles": "NC(=O)C1(N2CCCCC2)CCN(C(=O)c2ccc(C#Cc3ccccc3)o2)CC1", "IkBa stabilization activation": "inconclusive: 1.25% [signal inhibitor]"}, {"smiles": "c1cncc(CNc2cc(-c3ccc4c(c3)OCO4)ncn2)c1", "IkBa stabilization activation": "inactive: -3.79% [at 11.4 µM, scaled: untreated 0%, proteasome inhibitor 100%]"}, {"smiles": "CCOc1ccc(OCC)c(NC(=O)c2cc(S(=O)(=O)N3CCc4ccccc43)cn2C)c1", "IkBa stabilization activation": "inconclusive: -4.45% [signal inhibitor]"}, {"smiles": "O=C(CSc1nnc(-c2cccnc2)n1Cc1ccco1)c1ccc(Br)cc1", "IkBa stabilization activation": "inconclusive: 13.6% [signal inhibitor]"}]}]}
